Experimental data taken from PMC6322289 (2019).

Biological target: β-1,3-glucanase (Hevea brasiliensis (endogenous in latex …, UniProt P52407 37-356))
Assay: SPR

UniProt P52407, sequence (P52407 37-356): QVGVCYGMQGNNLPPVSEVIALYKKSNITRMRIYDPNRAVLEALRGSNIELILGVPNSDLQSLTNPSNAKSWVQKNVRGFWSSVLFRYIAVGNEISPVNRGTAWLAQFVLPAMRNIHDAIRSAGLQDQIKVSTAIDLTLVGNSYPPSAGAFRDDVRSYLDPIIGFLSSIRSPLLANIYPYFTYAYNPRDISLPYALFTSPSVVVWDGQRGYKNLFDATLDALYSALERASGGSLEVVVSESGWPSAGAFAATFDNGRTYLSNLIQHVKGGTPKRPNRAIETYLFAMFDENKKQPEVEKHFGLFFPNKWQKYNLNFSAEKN

B1: chitinase (enzyme)
chain: GGIAIYWGQNGNEGTLTQTCSTRKYSYVNIAFLNKFGNGQTPQINLAGHCNPAAGGCTIVSNGIRSCQIQGIKVMLSLGGGIGSYTLASQADAKNVADYLWNNFLGGKSSSRPLGDAVLDGIDFDIEHGSTLYWDDLARYLSAYSKQGKKVYLTAAPQCPFPDRYLGTALNTGLFDYVWVQFYNNPPCQYSSGNINNIINSWNRWTTSINAGKIFLGLPAAPEAAGSGYVPPDVLISRILPEIKKSPKYGGVMLWSKFYDDKNGYSSSILDSV
modifications: native protein purified from lutoid B-serum; the paper does not name the family member. Hevamine-A is assumed as the major lutoid chitinase (about 29 kDa, seen as a 26 kDa band); mature limits are from the CHAIN feature; disulfides as in the native protein
For B1, the koff was 0.0147 s⁻¹.
